# Experimental data reported in patent publication EP3838286B1, “ANTIMICROBIAL PEPTIDE FROM POLISTES GALLICUS VENOM AND ITS ANALOGS” (Latoxan, priority 2019, dated 2021).
# Read-outs that look alike come from different tables or passages of the source. For part of these data: At least one peptide structure holds a part that was inferred or is arguable (an end, a ring closure or a residue). For part of these data: At least one structure is not confirmed: it was looked up by name or label, or the drawing left a doubt. Square brackets hold non-standard residues; d marks the D form. Ends that are not written are not given here. Peptide text beside a SMILES is read from it.
# Tests used:
# [1] = system: HeLa TLR4/IL-8 Renilla Luciferase Reporter cell line; experiment: Anti-inflammatory activity (LPS stimulation, luciferase reporter); format: cell-based; details: 10 ng/mL LPS from P. aeruginosa, 6 h incubation, read-out: IC50 (inhibition of LPS effect)
# Description: Anti-inflammatory activity of the peptides was determined using eLUCidate™ HeLa TLR4/IL-8 Renilla Luciferase Reporter cell line (obtained from ASMBIO). eLUCidate™ HeLa cells were cultivated according to manufacturer instructions. eLUCidate™ HeLa cells were seeded in 96 wells plates at an initial 50,000 cells/well. The next day, media from wells was empty and cells were exposed to LPS from P. aeruginosa (from Sigma Aldrich) diluted in culture media at a final concentration of 10 ng/ml in the presence of increasing concentrations of peptides. Polymyxin B (PMB, from Sigma Aldrich) was used as positive control. After 6 h incubation at 37°C in an incubator containing 5% CO2, wells were empty and cells were lysed in 70 µl of PBS containing 1% Triton X100 for 15 min on ice. 50 µl of cell lysats were then transferred to white 96 wells plates containing 50 µl of Renilla Luciferase substrate (Genofax A from Yelen, Marseille France). Luminescence intensities were measured using microplate reader (Synergy Mx, Biotek). The luminescence values were normalized by the controls (buffer treated cells) and expressed as percent of LPS stimulation. The IC50 values of peptides on LPS effect (i.e. the concentration of derivative causing a reduction of 50% of LPS effect) were determined using GraphPad® Prism 7 software. t-Test and two way ANOVA analyses were used to address the significant differences between mean values with significance set at p < 0.05.
# P. aeruginosa [2] = experiment: Selection for resistant bacteria (serial passaging); format: cell-based; details: daily exposure at sub-MIC levels, 30 days; antibiotics: after 10 days
# Description: To evaluate if populations of AMP-resistant bacteria could be selected, cultures were continuously exposed to LTX-gallicune-1 (I1N1) and LTX-gallicune-2(R1W8) peptides for a duration of 30 days, as previously described (Oyama et al., 2017 Biofilms Microbiomes, Dec 1;3:33). Briefly, broth microdilution susceptibility testing was performed using a standard doubling-dilution series of gallicune peptides concentrations on day 1. Following incubation of the cultures for 24 h, and determination of the MIC, the well that contained the highest concentration of AMPs permitting growth was diluted 1: 1000 in MH and used to provide the inoculum for the next MIC assay; this process was repeated daily for 30 days.
# S. aureus [3] = details: Table 4; n=4
# E. coli [4] = details: for MIC (µM) E. coli: Table 4, n=4
# B.subtilis = experiment: Permeabilization of the cytoplasmic membrane (propidium iodide); format: cell-based, Bacillus subtilis
# S. aureus [5] = experiment: as above; format: cell-based, Staphylococcus aureus
# E. coli [6] = experiment: as above; format: cell-based, Escherichia coli
# P. aeruginosa [7] = experiment: as above; format: cell-based, Pseudomonas aeruginosa; details: for dose sufficient to induce (start of) permeabilization: After 40 minutes of exposure
# P. aeruginosa [8] = experiment: Selection for resistant bacteria (serial passaging); format: cell-based; details: daily exposure at sub-MIC levels, 30 days; antibiotics: after 10 days; remark: listed apart in the source
# P. aeruginosa [9] = details: for MIC (µM) P. aeruginosa: n=4
# A.baumani = details: Table 4; n=4
# B. subtilis = experiment: Selection for resistant bacteria (serial passaging); format: cell-based; details: daily exposure at sub-MIC levels, 30 days; antibiotic: after 10 days
compound,measurement,setting,value
"CC[C@@H](C)[C@@H](N)C(=O)N[C@H](CC(C)C)C(=O)N[C@H](CCCCN)C(=O)N[C@H](C)C(=O)N[C@@H](C(=O)N[C@H](CCCCN)C(=O)N[C@H](CCCCN)C(=O)N[C@H](CC(C)C)C(=O)N[C@H](CC(C)C)C(=O)N[C@H](CCCCN)C(N)=O)[C@H](C)CC [(i1k10*) enantio, ilkaikkllk] (H-[dI][dL][dK][dA][dI][dK][dK][dL][dL][dK]-NH2)",IC50,[1],7.24 µM
C[C@@H](O)[C@H]1C(=O)N2C(C(=O)O)=C(SCCN=CN)C[C@H]12 [Imipenem],change of MIC against P. aeruginosa on serial passaging (resistance acquisition),P. aeruginosa [2],increasing
"CC[C@@H](C)[C@@H](N)C(=O)N[C@H](CC(C)C)C(=O)N[C@H](CCCCN)C(=O)N[C@H](C)C(=O)N[C@@H](C(=O)N[C@H](CCCCN)C(=O)N[C@H](CCCCN)C(=O)N[C@H](CC(C)C)C(=O)N[C@H](CC(C)C)C(=O)N[C@H](CCCCN)C(=O)N[C@H](CC(N)=O)C(N)=O)[C@H](C)CC [LTX-D (gallicune-1), ilkaikkllkn] (H-[dI][dL][dK][dA][dI][dK][dK][dL][dL][dK][dN]-NH2)",IC50,[1],15.4 µM
same,MIC (µM) S. aureus,S. aureus [3],/ (« / » means MIC > 100µM)
CC[C@@H](C)[C@@H](N)C(=O)N[C@@H](CC(C)C)C(=O)N[C@@H](CCCCN)C(=O)N[C@@H](C)C(=O)N[C@H](C(=O)N[C@@H](CCCCN)C(=O)N[C@@H](CCCCN)C(=O)N[C@@H](CC(C)C)C(=O)N[C@@H](CC(C)C)C(=O)N[C@@H](CCCCN)C(=O)N[C@H](CC(N)=O)C(N)=O)[C@@H](C)CC [LTX-gallicune-1(i1D-n11D)] (H-[dI]LKAIKKLLK[dN]-NH2),IC50,[1],7.88 µM
same,MIC (µM) S. aureus,S. aureus [3],/ (« / » means MIC > 100µM)
same,MIC (µM) E. coli,E. coli [4],/ (« / » means MIC > 100µM)
CC[C@@H](C)[C@@H](N)C(=O)N[C@@H](CC(C)C)C(=O)N[C@@H](CCCCN)C(=O)N[C@@H](C)C(=O)N[C@H](C(=O)N[C@@H](CCCCN)C(=O)N[C@@H](CCCCN)C(=O)N[C@@H](CC(C)C)C(=O)N[C@@H](CC(C)C)C(=O)N[C@H](CCCCN)C(N)=O)[C@@H](C)CC [i1k10*] (H-[dI]LKAIKKLL[dK]-NH2),IC50,[1],9.48 µM
ILKAIKKLLKN-NH2 [LTX-gallicune-1 (I1N11)],IC50,[1]; listed as LTX-gallicune-1-(I11N11),16.8 µM
same,lowest permeabilizing dose (permeabilizing as early as),B.subtilis,3 µM
same,permeabilization of the membrane of S. aureus,S. aureus [5]; up to 100 µM,does not permeabilize
same,permeabilization,E. coli [6]; at 100 µM,10%
same,times more permeabilizing against P. aeruginosa than against E. coli,P. aeruginosa [7],8 times
same,dose sufficient to induce (start of) permeabilization,P. aeruginosa [7],6 µM
same,"permeabilization plateau, % of the standardized effect of CTAB",P. aeruginosa [7]; At 100 µM,80%
same,change of MIC against P. aeruginosa on serial passaging (resistance acquisition),P. aeruginosa [8],not changed
same,MIC against P. aeruginosa,P. aeruginosa [9],3.12 µM
same,MIC (µM) S. aureus,S. aureus [3],/ (« / » means MIC > 100µM)
same,MIC against E. coli (text),E. coli [4]; listed as LTX-gallicune-1(I1-N11),6.25 µM
ILSAILGLLKNL-NH2 [Gallicus-CP(I1L12)],lowest permeabilizing dose (permeabilizing as early as),B.subtilis,1.5 µM
same,dose from which maximum of permeabilization is reached,B.subtilis; after 40 minutes of incubation,6 µM
same,dose from which maximum of permeabilization is reached,S. aureus [5]; after 40 minutes of incubation,6 µM
same,permeabilization,S. aureus [5]; from the first minute of incubation with 100 µM,100%
KAIKKLLKN-NH2 [K3N11*],MIC (µM) P. aeruginosa,P. aeruginosa [9]; Table 4,/ (« / » means MIC > 100µM)
same,MIC (µM) E. coli,E. coli [4],/ (« / » means MIC > 100µM)
same,MIC (µM) A.baumani,A.baumani,/ (« / » means MIC > 100µM)
KLLGLIASLI-NH2 [K10I1],MIC (µM) P. aeruginosa,P. aeruginosa [9]; Table 3,/ (« / » means MIC > 100µM)
RLLGLWLW-NH2 [LTX-gallicune-2 (R1W8)],permeabilizing effect,E. coli [6]; After 40 minutes of incubation at 100 µM,negligible
same,dose sufficient to induce (start of) permeabilization,P. aeruginosa [7],50 µM
same,change of MIC against B. subtilis on serial passaging (resistance acquisition),B. subtilis,not changed
